Each structure is given as a SMILES string. Out of some 45,000 compounds screened, about 65 (0.1%) were called active. Calls come from the whole dose curve; as a rule, active = well fitted activation curve with a large enough effect; inconclusive = small, poorly fitted or top-dose-only effect; inactive = no such curve, though single readings can be large or run the other way. The list shows a part of the results.

Chain of UniProt P54803 (P54803 whole entry, looked up): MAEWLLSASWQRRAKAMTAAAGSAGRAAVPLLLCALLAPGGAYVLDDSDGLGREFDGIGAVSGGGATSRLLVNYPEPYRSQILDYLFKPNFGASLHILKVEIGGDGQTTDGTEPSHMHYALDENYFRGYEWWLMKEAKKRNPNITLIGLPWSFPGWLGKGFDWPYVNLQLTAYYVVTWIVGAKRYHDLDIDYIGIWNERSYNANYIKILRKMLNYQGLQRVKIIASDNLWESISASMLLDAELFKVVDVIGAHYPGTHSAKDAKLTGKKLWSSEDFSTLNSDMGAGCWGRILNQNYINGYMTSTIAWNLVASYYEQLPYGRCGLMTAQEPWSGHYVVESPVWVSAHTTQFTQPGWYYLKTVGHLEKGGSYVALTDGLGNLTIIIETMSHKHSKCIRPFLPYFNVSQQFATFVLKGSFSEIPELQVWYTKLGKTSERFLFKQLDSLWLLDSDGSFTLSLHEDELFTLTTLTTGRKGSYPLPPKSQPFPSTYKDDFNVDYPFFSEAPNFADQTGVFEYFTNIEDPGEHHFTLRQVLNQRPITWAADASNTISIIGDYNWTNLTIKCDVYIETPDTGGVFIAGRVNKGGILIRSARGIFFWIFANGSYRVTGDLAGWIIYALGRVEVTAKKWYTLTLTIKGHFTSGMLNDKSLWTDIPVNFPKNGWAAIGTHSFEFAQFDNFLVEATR

This assay concerns the target Galactocerebrosidase (Homo sapiens) (UniProt P54803). In words: A Novel Cell-Based Assay to Identify Small Molecules for B -Galactocerebrosidase. Note: 0% is about no effect; nearly all actives have a fitted effect of over 65% in size. As to conditions: 145M-Twi-hGALC-G270D cells (Twitcher mouse brain line with human GALC G270D), HMU-beta-Gal fluorescence, 48 h; series mostly up to 57.5 µM; activation: at the top concentration. The gist of the method:
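Brain-derived Twitcher mouse 145M-Twi cells stably expressing human GALC-G270D or wild-type GALC, treated live, then residual GALC activity read by fluorescence of HMU-b-Gal substrate (0.1 mM final) in citrate-phosphate buffer pH 5.2 with sodium taurocholate. Signal increase indicates enhancement.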
For the compound `COc1cc(OC)cc(OC)c1`, the “activation” value was inactive: -18.1%.

`Cc1ccc(Nc2c(C(C)C)c(C)c(C#N)c3nc4ccccc4n23)cc1`: the “activation” value is inactive: -13.3%.

Consider `CCCNC(=O)CN1C(=O)CSc2ccc(S(=O)(=O)N3CCC(C)CC3)cc21`, for which the “activation” value was inactive: -7.95%.

Take `CCOc1ccc(NC(=O)c2cc(S(=O)(=O)NC3CCCCCC3)ccc2F)cc1`: the “activation” value was inactive: -4.07%.

As for `COc1ccc2c(c1)CCc1c(C(=O)Nc3c(C)nn(Cc4ccccc4)c3C)noc1-2`, the “activation” value is inactive: -9.26%.

`Cc1ccccc1-c1noc(-c2ccc(NCc3ccco3)c([N+](=O)[O-])c2)n1`: the “activation” value was inactive: -16.5%.

In the case of `CCC(C)NC(=O)CCCc1nnc2n(CC(C)C)c(=O)c3sccc3n12` (stereo not given), the “activation” value was inactive: -20.4%.

Turning to `CCN(CC)C(=O)C1CCN(S(=O)(=O)c2c(C)noc2/C=C/c2cccc(OC)c2)CC1`, the “activation” value was inactive: -12%.

As for `CCOc1ccc(C2CC(=O)c3c([nH]c(C(=O)OCC4CCCCC4)c3C)C2)cc1` (stereo not given), the “activation” value was inactive: -17.9%.

With `Cc1ccc(S(=O)(=O)C(CNC(=O)C(=O)NCCc2ccccc2)c2cccs2)cc1` (stereo not given), the “activation” value was inactive: -2.05%.

Take `O=c1oc2ccccc2c(N2CCN(c3ccccc3F)CC2)c1CN1CCCC1`: the “activation” value is inactive: -8.87%.

On to `COCCCNC(=O)c1nn(-c2ccc(C)cc2)nc1CO`, for which the “activation” value is inactive: 0.728%.

`COc1ccc2c(Sc3ccc(C)cc3)c(C(=O)NC(C)C)[nH]c2c1`: the “activation” value was inactive: -31.7%.

Consider `CCOc1ccccc1NC(=O)CSc1nccn1-c1cccc(C)c1`, for which the “activation” value was inactive: -39.8%.

`CCOc1ccc(-n2c(=O)c3c(C)c(C)sc3n(CC(=O)NCCc3ccccc3)c2=O)cc1`: the “activation” value is inactive: -6.8%.

As to `O=C(CN1C(=O)CSc2ccc(S(=O)(=O)N3CCCC3)cc21)Nc1cccc(Cl)c1`, the “activation” value is inactive: -24.5%.

Turning to `Cc1cccc(CNC(=O)Cn2ccc3cc(S(=O)(=O)N4CCCCCC4)ccc32)c1`, the “activation” value is inactive: -12%.

As to `COc1cccc(NC(=O)C(Cc2ccccc2)NS(=O)(=O)c2ccc3c(c2)c(=O)n(C)c(=O)n3C)c1` (stereo not given), the “activation” value was inactive: -4.35%.

Take `CCCc1cc(=O)oc2cc(C)c3c(-c4ccccc4)coc3c12`: the “activation” value is inactive: -22.9%.

For `CC(C)c1ccc(OCC(=O)N(Cc2cccs2)C2CCS(=O)(=O)C2)cc1` (stereo not given), the “activation” value is inactive: -6.43%.

For the compound `COc1ccc(CNC(=O)CCc2c(C)c3cc4c(C)c(C)oc4cc3oc2=O)cc1OC`, the “activation” value is inactive: 6.34%.

In the case of `Cc1cccc(C2CC(=O)Nc3cc4c(cc32)OCO4)c1` (stereo not given), the “activation” value was inactive: -4.51%.

`CCc1nc2nc(C)cc(Nc3cccc(C)c3C)n2n1`: the “activation” value is inactive: -17.1%.

For the compound `Cc1cc2ccccc2n1CCNC(=O)c1ccc(Br)cc1`, the “activation” value was inactive: -16.4%.

Take `CCc1ccc(NC(=O)CN2C(=O)C3(SCC(=O)N3c3ccc(F)c(F)c3)c3ccccc32)cc1` (stereo not given): the “activation” value was inactive: -24.3%.

As for `CSc1ccc(-c2nnc(NC(=O)c3ccc4c(c3)OCCO4)o2)cc1`, the “activation” value was inactive: -17.5%.

For `Fc1ccccc1N1CCN(c2nc3ccccc3c3nc(-c4ccccc4)nn23)CC1`, the “activation” value was inactive: -5.27%.

For `Cc1ccc(N2CC(C(=O)Nc3ccc(N(C)C)cc3)CC2=O)cc1Cl` (stereo not given), the “activation” value is inactive: -4.57%.

For the compound `CCN(CC)c1ccc(NC(=O)CCCN2C(=O)C(c3ccccc3)Oc3cccnc32)c(C)c1` (stereo not given), the “activation” value is inactive: 2.39%.

`O=C(NC1CCCC1)c1ccc2c(=O)n(Cc3ccccc3)c(SCc3cccc(F)c3)nc2c1`: the “activation” value is inactive: -11.5%.

For `CCC(C(=O)N1CCN(c2ccccc2)CC1)n1c(C)c2cnn(-c3ccccc3)c(=O)c2c1C` (stereo not given), the “activation” value is inactive: -15%.

As for `CCOc1cc(Cl)c(S(=O)(=O)n2ccnc2)cc1Cl`, the “activation” value was inactive: -9.44%.

With `Cc1nnc(N2CCC(C(=O)NCCC(C)C)CC2)c2nn(-c3ccc(Cl)cc3)c(C)c12`, the “activation” value is inactive: -12%.

On to `C=C(C)CSc1nc(-c2ccccc2)cc(-c2ccc(OC)cc2)c1C#N`, for which the “activation” value is inactive: -17.7%.

With `Cc1cc(C)n(C(C)CC(=O)Nc2ccc(C)c(N(C)C)c2)n1` (stereo not given), the “activation” value was inactive: -20.1%.

Take `COC(=O)c1ccc(NC(=O)CN2C(=O)CC(c3ccccc3)Sc3ccccc32)cc1` (stereo not given): the “activation” value was inactive: 1.34%.

For the compound `CC(=O)Nc1cccc(-n2cc3c(c2-c2ccccc2Cl)c(=O)n(C)c(=O)n3C)c1`, the “activation” value was inactive: -14.6%.

As to `O=C(CN1C(=O)c2cccnc2Oc2ccc(Cl)cc21)Nc1cccc(C(F)(F)F)c1`, the “activation” value is inactive: -6.23%.

`COc1ccc(C)cc1Nc1cc(C)nc(C)n1`: the “activation” value was inactive: -14.9%.

In the case of `CC(C)Oc1ccc(C(=O)Nc2c(C(=O)Nc3cccc(F)c3)oc3ccccc23)cc1`, the “activation” value was inactive: -10.2%.

Regarding `O=C(CCn1ccc2cc(S(=O)(=O)N3CCCC3)ccc21)NCc1ccccc1Br`, the “activation” value is inactive: 19.2%.

As for `O=C(CSc1nc(-c2ccc(F)cc2)[nH]c1-c1ccc(F)cc1)Nc1ccc2c(c1)OCO2`, the “activation” value is inactive: -34.8%.

Turning to `O=C(Cc1ccc(-c2ccccc2)cc1)NCCS(=O)(=O)N1CCN(c2ccccc2)CC1`, the “activation” value is inactive: -16%.

In the case of `COc1cc(NC(=O)CSc2ccc(-c3ccccn3)nn2)cc(OC)c1`, the “activation” value was inactive: -12.8%.

For the compound `O=C(Cn1cc(S(=O)(=O)c2ccccc2)c(=O)c2cc(Cl)ccc21)Nc1ccc2c(c1)OCO2`, the “activation” value is inactive: -11.8%.

Consider `O=C(NCCCN1CCOCC1)c1ccc2c(c1)N(Cc1cccc(Cl)c1)C(=O)c1ccccc1S2`, for which the “activation” value is inactive: -6.37%.

On to `Cc1cc(Nc2cccc(C(F)(F)F)c2)nc2ccc(NC(=O)c3cccc(Cl)c3)cc12`, for which the “activation” value is inactive: -5.36%.

As to `CCOc1cc(C(=O)NCC(c2ccc(N(C)C)cc2)N2CCOCC2)cc(OCC)c1OCC` (stereo not given), the “activation” value is inactive: -3.95%.

As to `O=S(=O)(c1cccc2ccccc12)N1CCN(c2ccc(Cl)c(Cl)c2)CC1`, the “activation” value is inactive: -13.7%.

As for `COc1ccc(NC(C)=O)cc1NC(=O)CN1CCN(c2ccc(F)cc2)CC1`, the “activation” value was inactive: -3.36%.
